# Test results: the supplement of paper PMC11417369
# The other results are listed elsewhere or left out.
# Tested on: PF3D7_0420300 AP2 domain 1 (GST-tagged)
# Assay: gcPBM binding intensity (ln(normalized median fluorescence intensity)); higher = stronger DNA binding
# Outline: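 DNA-binding domains from P. falciparum, fused to GST and produced in E. coli, were put on an Agilent 4 × 180k double-stranded probe array for 1 h in 1× PBS holding 1% milk, 0.2 mg/ml BSA, 0.5% salmon testes DNA and 0.03% Triton X-100. Probes were primer-extended, 36 bp long and drawn from intergenic genomic regions, with negative controls included. After Alexa488 anti-GST antibody detection and a 488 nm scan, binding intensity was set as the highest Masliner-normalised natural-log median intensity across replicate spots of either probe orientation.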
row,Sequence,gcPBM binding intensity (ln)
1,TTATTATATATATCTCGTACGTGTATACGCCTACCA [XGTACX_site8375],9.15
2,TGTTATATTTCAAATTGTACTAATCTAATTAATAAA [XGTACX_site604],8.82
3,AAAAAAATGAAACACACACACACATATATATATATA [CACACA_site1043],9.93
4,ACAAAGTTTATAGAACGTACATACTTACACATATTT [XGTACX_site556],9.3
5,AAACAATTACACATATGTATGTATATATATATATAT [TGCATGCA_negctrl_site536],9.25
6,TGGCAAAATAGGCACACACACATATACATATATATT [CACACA_site1059],9.89
7,ATATTATAGTATATAACACACATTTTTCATAACACT [CACACA_site6331],9.59
8,TATATAATTAAAATAACACACATATATAAAAATATA [CACACA_site2990],9.58
9,GTATATATATTTCTTTAATAATTAAATTATAAATAT [CACACA_negctrl_site640],9.05
10,AATATATAAACACGTACACACACATATATGTATATA [CACACA_site9168],9.96
11,AATTTAAATATTTGTTGTACGTATTTATATATTCTT [XGTACX_site3623],9.54
12,TATTATATCTTATATGTATATTCCCACAAATTATAT [GTGCAC_negctrl_site362],9.2
13,ATAATATATAAACACACACACATATATAAATACATT [CACACA_site4466],10.1
14,CATGCCGTTAAATTATGTACTTATTATTTTAATATG [XGTACX_site4209],9.31
15,TTAAAAAATTATTGTAGTACATAGGAAATGAAAAAA [XGTACX_site155],9.28
16,TAAATTAAATATTATAAACACACATATATATTATTT [CACACA_site8189],9.35
17,ATATAAATAAATACAACACACATGTCATATCTAAAT [CACACA_site7533],9.67
18,TATATACATAAAATTTGTACATATATATATATATAT [XGTACX_site3214],9.28
19,AAAAAAAAAAAATGAGCACACATAAATAAAAACAAA [CACACA_site8447],9.81
20,ATATTATTCTTATATTCACACAGTTTATATTTCCGT [CACACA_site5653],9.51
21,AAATTACATACACGCGCACACACAAAAAAAAAAAAA [CACACA_site1335],9.81
22,TTCCAAAAAATTATTACACACATATGAGCACATATA [CACACA_site4543],9.47

row,Sequence,gcPBM binding intensity (ln)
1,TACGGTTGTTTATTTTGTACGTAAAAAATATATTAT [XGTACX_site8393],9.39
2,TATTAATTAAAAAAATGTACATAATTATAAATTTTT [XGTACX_site7994],8.99
3,TAATATACATATATATGTACATATATATATATATAT [XGTACX_site2684],9.03
4,TATTTATATTCCTTTACACACTCCATCTTATATCCA [CACACA_site3604],9.59
5,ACCGTGGGAGGACACACACACACACCCACATATATA [CACACA_site4339],10.2
6,ATTTTTGTTATTACATGTACCCATAATTATTATTAA [XGTACX_site3558],9.53
7,AACAATTATTTGTCGACACACGTATATGTTATTTAG [CACACA_site5046],9.56
8,ACAAAAAAATGAAAAGAAAAAGATATACCCCAATAT [CACACA_negctrl_site509],9.91
9,ATATCCATAATAAAAACATGCAACAGAAAAAAAAAA [TGCATGCA_site497],9.62
10,AAGAGAAATATATATTGTACAATAATTTTATTTGGT [XGTACX_site7642],9.16
11,TATATATTAATATTTACACACATGCGCACCCATAAA [CACACA_site2410],9.64
12,TTACAAAAAGGTAATTTACACACTGCATATAGGAAT [CACACA_site8956],9.63
13,TCTTAATATGGTAATACACACTAATATACTTTTGTT [CACACA_site4969],9.53
14,ACCCTTCAATTTAATTGTACAAGAAAAAAAAAAAAA [XGTACX_site2927],8.83
15,TGCTCAAACTTTACAAATGAACGAATATAAAAAAAG [CACACA_negctrl_site541],9.03
16,AAATAATCATAAAATAAACACACATATATAAATATA [CACACA_site7981],9.64
17,ACATAATATACTATTGTGCACATATATATATATATA [GTGCAC_site9761],9.33
18,GTTAATTTAATTATATGTACGAAAAAATACGTTATA [XGTACX_site1306],9.05
19,TTTTTATTTTTTTATTTCTTATCAAATAAAATATAT [XGTACX_negctrl_site537],9.08
20,ATTAAAATGGAGTATTAATATGATATATATATATAT [GTGCAC_negctrl_site509],9.25
21,AGGAACATTTACGCCCCACACACCTACCAACAAAAA [CACACA_site3827],9.64
22,TAAATACAGACATACACACATACACCCACATATATA [CACACA_site547],9.95
